Test results taken from the supplement of paper PMC10369915.
The other results are listed elsewhere or left out. No stated cut-off is given here; in the data, active = 3.2 or more and inactive = the rest. The signal is at background level for most entries.

B1: MYH2_HUMAN_389 (peptide)
chain: EVADKAAYLQSLNSA
B2: MYLK_HUMAN_1449 (peptide)
chain: EKEPEVDYRTVTINT
B3: MYLK_HUMAN_1635 (peptide)
chain: VAPEVINYEPIGYAT
B4: MYLK_HUMAN_1635_YA (peptide)
chain: VAPEVINYEPIGAAT
B5: MYLK_HUMAN_471_YA (peptide)
chain: AEDAGSHYLCLLKAR
B6: MYLK_HUMAN_611 (peptide)
chain: KSSRKSEYLLPVAPS
B7: MYLK_HUMAN_846 (peptide)
chain: DGGGSDRYGSLRPGW
B8: MYPC1_HUMAN_823_YA (peptide)
chain: AGASEPKYASQPILV
B9: NAMPT_HUMAN_188_YA (peptide)
chain: GNLDGLEYKLHDFGA
B10: NCK1_HUMAN_105 (peptide)
chain: VDPGERLYDLNMPAY
B11: NCK1_HUMAN_105_YA (peptide)
chain: VDPGERLYDLNMPAA
B12: ANR11_HUMAN_1850_YA (peptide)
chain: FACLSPGYASPDAGL
B13: NDUV2_HUMAN_193 (peptide)
chain: VQINDNYYEDLTAKD
B14: NDUV2_HUMAN_193_YA (peptide)
chain: VQINDNAYEDLTAKD
B15: NETO1_HUMAN_417 (peptide)
chain: VADDFENYHKLRRSS
B16: NFASC_HUMAN_481 (peptide)
chain: DGGNYHVYENGSLEI
B17: NFIC_HUMAN_300 (peptide)
chain: TSPGGDYYTSPSSPT
B18: NFIC_HUMAN_300_YA (peptide)
chain: TSPGGDAYTSPSSPT

Target: SHP2 C-SH2 domain E139D
Assay: enrichment score (SH2-bound / input frequency) (ratio); bacterial display of known human phosphotyrosine sites (pTyr-Var adds point mutants) read by sequencing; higher = stronger binding; tyrosines were phosphorylated by kinases first
Conditions: peptide library: Human pTyr
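Further: displayed peptides selected on beads carrying the immobilized SH2 domain, with library peptides lacking any tyrosine serving as negative controls.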

Enrichment score, inactive:
B1 0.658
B2 1.04
B3 0.801
B4 0.562
B5 1.7
B6 0.709
B7 0.659
B8 0.6
B9 0.57
B10 0.612
B11 0.595
B12 1.23
B13 1.46
B14 1
B15 0.667
B16 0.773
B17 0.828
B18 0.267

Target: SHP2 C-SH2 domain wild-type
Assay: as above
Conditions: peptide library: Human pTyr

Enrichment score, inactive:
B1 0.595
B2 0.691
B3 0.705
B4 0.712
B5 1.12
B6 0.54
B7 0.684
B8 0.526
B9 0.484
B10 0.585
B11 0.588
B12 1.81
B13 1.11
B14 0.872
B15 0.776
B16 0.66
B17 0.56
B18 0.523

Target: SHP2 N-SH2 domain L43F
Assay: as above
Conditions: peptide library: Human pTyr

Enrichment score, inactive:
B1 0.844
B2 0.976
B3 0.66
B4 0.578
B5 1.5
B6 0.802
B7 0.662
B8 0.696
B9 0.521
B10 0.593
B11 0.692
B12 0.968
B13 0.889
B14 1.05
B15 0.777
B16 0.818
B17 0.687
B18 0.395

Target: SHP2 N-SH2 domain T42A
Assay: as above
Conditions: peptide library: Human pTyr

Enrichment score, inactive:
B1 0.878
B2 0.987
B3 0.85
B4 0.652
B5 1.08
B6 0.677
B7 0.72
B8 0.514
B9 0.468
B10 0.541
B11 0.677
B12 0.968
B13 1.17
B14 0.846
B15 0.659
B16 0.862
B17 0.754
B18 0.353

Target: SHP2 N-SH2 domain T52S
Assay: as above
Conditions: peptide library: Human pTyr

Enrichment score, inactive:
B1 0.685
B2 0.834
B3 0.809
B4 0.418
B5 1.36
B6 0.906
B7 0.713
B8 0.673
B9 0.485
B10 0.593
B11 0.565
B12 1.07
B13 1.3
B14 0.973
B15 0.836
B16 0.59
B17 0.811
B18 0.129

Target: SHP2 N-SH2 domain wild-type
Assay: as above
Conditions: peptide library: Human pTyr

Enrichment score, inactive:
B1 0.739
B2 1.36
B3 0.656
B4 0.532
B5 1.53
B6 0.729
B7 0.637
B8 0.733
B9 0.684
B10 0.549
B11 0.622
B12 1.29
B13 1.13
B14 0.998
B15 0.677
B16 0.912
B17 0.74
B18 0.575
